Experimental data: patent publication US4585757A, “Hypotensive active peptides” (Texas Tech University Health Sciences Center, priority 1984, dated 1986)
Part of at least one peptide drawing is inferred or uncertain, most often the ends. Square brackets hold non-standard residues; d marks the D form. Peptide text beside a SMILES is read from it. pGlu = O=C1CC[C@@H](C(=O)O)N1

Columns and labels:
[1] = test system: Sprague-Dawley rats; test: rat blood pressure assay; type: in vivo; conditions: for Blood Pressure Decrease: anesthetized rat, mean of 4 replications
Protocol: The rat blood pressure assay was conducted as follows: Sprague-Dawley rats of both sexes, weighing between 100 and 200 grams, were anesthetized with sodium pentobarbital and the right carotid artery and jugular vein were cannulated with polyethylene tubing PE50. The hypotensive peptide was administered and blood pressure was recorded in the anesthetized rats as described above for dogs.

[2] = test system: Mongrel dogs; test: dog blood pressure assay; type: in vivo; conditions: for Blood Pressure Decrease: anesthetized dog, i.v. injection; for Maximum Decrease in Blood Pressure: dog, mean of 4 replications

N=C(N)NCCC[C@H](NC(=O)[C@H](Cc1ccccc1)NC(=O)[C@@H]1CCCN1C(=O)[C@H](CO)NC(=O)[C@H](Cc1ccccc1)NC(=O)CNC(=O)[C@@H]1CCCN1C(=O)[C@@H]1CCCN1C(=O)[C@H](CCCNC(=N)N)NC(=O)[C@@H](N)CCCCN)C(=O)O
hypotensive action compared with bradykinin ([1]; rat): even more hypotensive than bradykinin itself

CC(C)[C@H](NC(=O)[C@@H]1CCCN1C(=O)[C@H](CCCNC(=N)N)NC(=O)[C@H](CCCNC(=N)N)NC(=O)[C@H](CCCCN)NC(=O)[C@H](CCCCN)NC(=O)CN)C(=O)N[C@@H](CCCCN)C(=O)O [CIP fragment] (H-GKKRRPVK-OH)
Blood Pressure Decrease ([1]; dose 10.0 ug/kg): 1 mmHg | Blood Pressure Decrease ([1]; dose 50.0 ug/kg): 18 mmHg | Blood Pressure Decrease ([1]; dose 100.0 ug/kg): 35 mmHg | Blood Pressure Decrease ([1]; dose 300.0 ug/kg): 38 mmHg

CC(C)C[C@H](NC(=O)[C@@H]1CCCN1C(=O)[C@H](Cc1ccccc1)NC(=O)[C@H](C)NC(=O)[C@H](CCC(=O)O)NC(=O)[C@H](C)NC(=O)[C@H](CO)NC(=O)[C@H](CCC(=O)O)NC(=O)[C@H](CC(=O)O)NC(=O)[C@H](CCC(=O)O)NC(=O)[C@H](C)NC(=O)CNC(=O)[C@H](CC(N)=O)NC(=O)[C@@H]1CCCN1C(=O)[C@H](Cc1ccc(O)cc1)NC(=O)[C@@H](NC(=O)[C@H](CCCCN)NC(=O)[C@@H](NC(=O)[C@@H]1CCCN1C(=O)[C@H](CCCNC(=N)N)NC(=O)[C@H](CCCNC(=N)N)NC(=O)[C@H](CCCCN)NC(=O)[C@H](CCCCN)NC(=O)CNC(=O)[C@@H](NC(=O)[C@@H]1CCCN1C(=O)[C@H](CCCCN)NC(=O)CNC(=O)[C@H](Cc1c[nH]c2ccccc12)NC(=O)[C@H](CCCNC(=N)N)NC(=O)[C@@H](N)Cc1ccccc1)C(C)C)C(C)C)C(C)C)C(=O)N[C@@H](CCC(=O)O)C(=O)O [CIP] (H-FRWGKPVGKKRRPVKVYPNGAEDESAEAFPLE-OH)
Blood Pressure Decrease ([2]; dose 0.1 ug/kg): 7 mmHg | Blood Pressure Decrease ([2]; dose 0.5 ug/kg): 10 mmHg | Blood Pressure Decrease ([2]; dose 1.0 ug/kg): 19 mmHg | Blood Pressure Decrease ([2]; dose 2.0 ug/kg): 21 mmHg | hypotension when administered to dogs ([2]; dogs, 0.1-2.0 ug/kg): dose-related hypotension

CC[C@H](C)[C@H](NC(=O)[C@H](Cc1ccc(O)cc1)NC(=O)[C@@H]1CCCN1C(=O)[C@H](CCCNC(=N)N)NC(=O)[C@@H](N)CCCNC(=N)N)C(=O)N[C@@H](CC(C)C)C(=O)O [Neurotensin (8-13), Arg-Arg-Pro-Tyr-Ile-Leu]
Blood Pressure Decrease ([1]; dose 0.1 ug/kg): 0 mmHg | Blood Pressure Decrease ([1]; dose 1.0 ug/kg): 13 mmHg | Blood Pressure Decrease ([1]; dose 3.0 ug/kg): 48 mmHg | Blood Pressure Decrease ([1]; dose 10.0 ug/kg): 63 mmHg

CSCC[C@H](NC(=O)[C@H](CC(C)C)NC(=O)CNC(=O)[C@H](Cc1ccccc1)NC(=O)[C@H](Cc1ccccc1)NC(=O)[C@H](CCC(N)=O)NC(=O)[C@H](CCC(N)=O)NC(=O)[C@@H]1CCCN1C(=O)[C@H](CCCCN)NC(=O)[C@@H]1CCCN1C(=O)[C@@H](N)CCCNC(=N)N)C(N)=O [Substance P]
Maximum Decrease in Blood Pressure ([2]; dose 5 × 10^-10 moles/kg): 50 mmHg

C[C@@H](O)[C@H](N)C(=O)N[C@@H](CCCCN)C(=O)N1CCC[C@H]1C(=O)N[C@@H](CCCNC(=N)N)C(=O)O [Tuftsin, Thr-Lys-Pro-Arg] (H-TKPR-OH)
Blood Pressure Decrease ([1]; dose 1000.0 ug/kg): 1 mmHg | Blood Pressure Decrease ([1]; dose 3000.0 ug/kg): 12 mmHg | Blood Pressure Decrease ([1]; dose 5000.0 ug/kg): 30 mmHg | Blood Pressure Decrease ([1]; dose 9000.0 ug/kg): 46 mmHg

CC[C@H](C)[C@H](NC(=O)[C@H](Cc1c[nH]c2ccccc12)NC(=O)[C@@H]1CCCN1C(=O)[C@H](CCCNC(=N)N)NC(=O)[C@H](CCCCN)NC(=O)CNC(=O)[C@@H]1CCC(=O)N1)C(=O)N[C@@H](CC(C)C)C(=O)O [Xenopsin] ([pGlu]GKRPWIL-OH)
Maximum Decrease in Blood Pressure ([2]; dose 3 × 10^-9 moles/kg): 32 mmHg
